The campaign covered roughly 310,000 compounds. About 2,200 (0.71%) showed an effect of 50% or more. Effects have a minus sign here. Some of the results follow.

In the assay the target is human ether-à-go-go-related gene (hERG) potassium channel (human, UniProt Q12809). Briefly: primary screen, population patch clamp on CHO cells stably expressing hERG.
Chain of human ether-à-go-go-related gene (hERG) potassium channel (Q12809 whole entry, looked up): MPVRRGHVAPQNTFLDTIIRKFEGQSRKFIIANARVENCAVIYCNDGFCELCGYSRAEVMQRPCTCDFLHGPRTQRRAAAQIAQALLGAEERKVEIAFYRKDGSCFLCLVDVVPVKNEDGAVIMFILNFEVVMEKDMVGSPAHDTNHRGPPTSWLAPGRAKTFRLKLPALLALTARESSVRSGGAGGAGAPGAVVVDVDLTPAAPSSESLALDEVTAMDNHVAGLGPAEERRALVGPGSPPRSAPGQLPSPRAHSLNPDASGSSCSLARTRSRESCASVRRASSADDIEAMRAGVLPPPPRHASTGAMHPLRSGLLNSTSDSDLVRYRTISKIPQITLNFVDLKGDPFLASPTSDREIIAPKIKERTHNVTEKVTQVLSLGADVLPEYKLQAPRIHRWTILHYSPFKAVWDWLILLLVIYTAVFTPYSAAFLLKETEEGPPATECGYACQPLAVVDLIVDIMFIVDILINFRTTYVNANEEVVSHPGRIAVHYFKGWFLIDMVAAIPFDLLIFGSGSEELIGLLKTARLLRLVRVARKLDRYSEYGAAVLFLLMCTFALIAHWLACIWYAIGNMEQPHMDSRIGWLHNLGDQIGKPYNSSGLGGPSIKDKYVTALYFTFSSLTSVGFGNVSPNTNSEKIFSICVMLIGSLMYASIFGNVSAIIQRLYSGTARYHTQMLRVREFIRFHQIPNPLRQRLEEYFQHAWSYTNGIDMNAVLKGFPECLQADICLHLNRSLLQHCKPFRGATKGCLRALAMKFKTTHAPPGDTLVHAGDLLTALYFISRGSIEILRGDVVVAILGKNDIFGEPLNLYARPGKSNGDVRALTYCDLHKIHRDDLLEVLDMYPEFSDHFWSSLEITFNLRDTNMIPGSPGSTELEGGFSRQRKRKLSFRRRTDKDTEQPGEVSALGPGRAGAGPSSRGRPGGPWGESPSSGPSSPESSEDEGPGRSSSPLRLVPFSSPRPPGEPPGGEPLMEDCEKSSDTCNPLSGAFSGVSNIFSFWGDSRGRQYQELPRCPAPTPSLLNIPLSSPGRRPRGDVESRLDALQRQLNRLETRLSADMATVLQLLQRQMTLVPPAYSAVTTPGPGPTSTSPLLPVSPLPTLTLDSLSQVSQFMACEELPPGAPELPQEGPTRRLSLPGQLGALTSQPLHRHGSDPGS
`Clc1ccccc1NC1=NCCCS1`: the “hERG current change (%, negative = inhibition) at 1uM” value was determined as 13.8%.
Consider `COc1ccc(CCNC(=O)Cc2ccc(C)cc2)cc1OC`, for which the “hERG current change (%, negative = inhibition) at 1uM” value is 15.5%.
With `Cc1ccc(C)n1C1CCS(=O)(=O)C1` (centres unmarked) the figure was 13.9%; with `N#Cc1ncccc1CCc1cccc(Cl)c1`, 11.4%.
With `O=C(CN1CCOCC1)NN=C(c1ccccc1)c1ccccc1` the figure was 15.9%.
`Cc1cccc(C)c1NC(=O)C(=O)NCCc1c[nH]c2ccccc12`: the “hERG current change (%, negative = inhibition) at 1uM” value came out at 13.3%.
On to `Cc1cc2nc3c(nc2cc1C)C(O)=C3O`, for which the “hERG current change (%, negative = inhibition) at 1uM” value is 11.4%.
For the compound `CCS(=O)(=O)CCSc1nc2ccccc2s1`, the “hERG current change (%, negative = inhibition) at 1uM” value is -9.56%.
In the case of `CCOc1cc(CN2CCCCCC2)ccc1OC`, the “hERG current change (%, negative = inhibition) at 1uM” value stood at 12.4%.
As for `Cc1cc(C)n2nc(C(=O)Nc3nnc(C4CC4)s3)nc2n1`, the “hERG current change (%, negative = inhibition) at 1uM” value is reported as 9.94%.
Regarding `O=C1CC(N2CCN(c3ccccc3)CC2)C(=O)N1c1cccc(Cl)c1` (centres unmarked), the “hERG current change (%, negative = inhibition) at 1uM” value is 10.3%.
With `COc1ccccc1-c1cc(C(F)(F)F)nc(S(=O)(=O)CCCC(=O)NC(C)C)n1`, the “hERG current change (%, negative = inhibition) at 1uM” value was found to be 7.65%.
For `CCOCCCNC(=O)C(c1ccccc1)N(Cc1cccs1)C(=O)c1ccccc1O` (centres unmarked), the “hERG current change (%, negative = inhibition) at 1uM” value is 17.5%.
Turning to `O=[N+]([O-])c1ccccc1/C=N/N1CCN(c2ccc(Cl)cc2)CC1`, the “hERG current change (%, negative = inhibition) at 1uM” value is given as 5.6%.
For `O=C(c1cccc(N2C(=O)c3ccccc3C2=O)c1)N1CCCC(C(F)(F)F)C1` (centres unmarked), the “hERG current change (%, negative = inhibition) at 1uM” value is -9.97%.
Under `COc1ccc(-c2nc(-c3cccs3)c(-c3cccs3)[nH]2)cc1O` stands -3.8%; under `O=C(Cc1ccc(F)cc1)N/N=C/c1ccc2c(c1)OCO2`, 8.72%; under `Cc1ccc(S(=O)(=O)N(C)c2cc(S(N)(=O)=O)c(C)cc2C)cc1`, 6.07%.
Turning to `O=C(COc1ccccc1F)Nc1cc(S(=O)(=O)Nc2cccc(Cl)c2)ccc1O`, the “hERG current change (%, negative = inhibition) at 1uM” value is 18.8%.
With `COc1cc(CCC(=O)OCC(=O)Nc2ccc(C)cc2Cl)cc(OC)c1OC` the figure was 15.1%; with `O=C(Nc1ccc(-c2nc3ccccc3s2)cc1)c1cc(-n2cnnc2)ccc1Cl`, 3.47%; with `O=C(COC(=O)COc1ccc2ccccc2c1)Nc1cc(C(F)(F)F)ccc1N1CCOCC1`, 15.9%.
Take `Cc1cc(C)c2[nH]c(=O)c(CN(Cc3ccco3)C(=S)NCC3CCCO3)cc2c1` (centres unmarked): the “hERG current change (%, negative = inhibition) at 1uM” value was 5.63%.
As for `CSc1ccc(C(=O)C2CCCN(S(=O)(=O)c3c(C)noc3C)C2)cc1` (centres unmarked), the “hERG current change (%, negative = inhibition) at 1uM” value was 6.97%.
Under `COc1ccc(NC(=O)C2CCN(S(=O)(=O)c3cn(C)nc3C)CC2)cc1` stands -2.13%; under `COc1ccc(-c2nc3c(-c4ccc(Cl)cc4)cnn3cc2C)cc1F`, 12.1%; under `COc1cc(C(=O)Nc2ccc(C)cc2)c2ccccc2n1`, 7.49%.
Consider `O=C(CN(c1ccc(Cl)c(C(F)(F)F)c1)S(=O)(=O)c1ccccc1)N/N=C/c1cccc2c1OCCO2`, for which the “hERG current change (%, negative = inhibition) at 1uM” value is reported as 18.3%.
Consider `CN1C(=O)CC(c2ccco2)Sc2ccccc21` (centres unmarked), for which the “hERG current change (%, negative = inhibition) at 1uM” value is -3.05%.
Under `CC(C)CCn1c(O)c(N=Nc2ccccn2)c2ccccc21` stands 13.5%; under `COc1ccc(C(NC(=O)c2cccc(F)c2)c2ccccc2)cc1` (centres unmarked), 4.02%; under `COc1ccc(C(C(=O)NC2CCCCC2)N(Cc2cccs2)C(=O)Cc2c[nH]c3ccccc23)cc1` (centres unmarked), 11.9%.
As to `CC(=O)c1ccc(S(=O)(=O)N2CCN(C)CC2)cc1`, the “hERG current change (%, negative = inhibition) at 1uM” value was determined as 10.8%.
Under `Cc1ccccc1C(=O)N1CCC(C(=O)O)CC1` stands -1.25%.
As to `COc1cc(S(=O)(=O)NCCN2CCOCC2)ccc1-n1cnnn1`, the “hERG current change (%, negative = inhibition) at 1uM” value is reported as 17%.
Regarding `CCN1C(=NCC(C)C)N[C@@H](c2cccc(C(F)(F)F)c2)C(C(=O)OC)=C1C`, the “hERG current change (%, negative = inhibition) at 1uM” value is -3.54%.
Turning to `CC(C)COc1ccc(CNC(=S)NCc2ccccc2)cc1`, the “hERG current change (%, negative = inhibition) at 1uM” value came to 12.7%.
Consider `COC(=O)c1ccccc1NC(=O)C12CCC(C)(C(=O)O1)C2(C)C` (centres unmarked), for which the “hERG current change (%, negative = inhibition) at 1uM” value amounted to 11.1%.
With `Cc1cc(NS(=O)(=O)c2ccc(NC(=S)NC(=O)c3ccncc3)cc2)no1`, the “hERG current change (%, negative = inhibition) at 1uM” value worked out at 14.6%.
For the compound `c1ccc2c(C3=NNC(=NC4CC4)SC3)c[nH]c2c1`, the “hERG current change (%, negative = inhibition) at 1uM” value is on record as 3.46%.
With `Cc1ccc(NC(=S)Nc2cccc3cnccc23)cc1C` the figure was 7.99%; with `CCN(CC)S(=O)(=O)c1ccc(N2CCCC2)c(NS(=O)(=O)c2ccc([N+](=O)[O-])cc2)c1`, 1.4%; with `CCNC(=O)CN(c1ccc(C)cc1)S(=O)(=O)c1ccccc1`, 15.4%.
For the compound `O=[n+]1cc(-c2ccccc2)n([O-])c2c1CCC2`, the “hERG current change (%, negative = inhibition) at 1uM” value is reported as 15.8%.

The values above are taken from paper PMC4336329 (PLoS ONE, 2015).
